{"source": "PubChem BioAssay (NCI)", "tested_on": "MDA-MB-468 breast", "test": "inhibition of tumour cell growth, NCI panel, 48 h", "note": "Values joined by “and” are separate entries in the source; they are usually repeats but may differ in a detail not shown here. Equal values may be shown once.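 Briefly, cells in 96-well plates were exposed to five compound concentrations for 48 h, and endpoints were estimated by linear interpolation. GI50 is the concentration that inhibits growth by half. TGI is the concentration that stops growth completely.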 Active and inactive are the calls of the source.", "data": [{"molecule": "CNC(=O)c1ccccc1Sc1ccc2c(/C=C/c3ccccn3)n[nH]c2c1", "values": [{"measurement": "GI50", "result": "inactive"}, {"measurement": "TGI", "result": "88.5 µM and > 10 µM"}]}]}
